# Reference: the supplement of paper PMC8748497
# The list shows a part of the results.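 How the source made its calls: active = GRHL reporter fold change of at least 2 over DMSO at 10 µM; inactive = below 2-fold.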 Most values come without repeats; read them as rough.
# System: HEK293 GRHL-luciferase reporter
# Assay: GRHL luciferase reporter activity, fold change over DMSO control; higher = stronger GRHL reporter activation
# Details: 10 µM; 24 h
# 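Further: stable HEK293 line carrying repeated GRHL consensus sites upstream of a minimal promoter driving luciferase, luminescence read 24 h post-treatment, normalized to 0.5% DMSO vehicle wells.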
row,Compound,GRHL luciferase reporter activity
1,COc1cc2ccc(=O)oc2c(OC)c1OC,inactive: 1.05
2,CC(O)(P(=O)(O)O)P(=O)(O)O,inactive: 1.04
3,CO/N=C(\C(=O)N[C@@H]1C(=O)N2C(C(=O)O)=C(CSc3nnnn3C)CS[C@H]12)c1csc(N)n1,inactive: 1.01
4,Oc1c(Br)cc(Br)c2cccnc12,inactive: 1.11
5,CO[C@H]1[C@H](O)[C@@H](O)[C@H](O)[C@H](O)[C@H]1O,inactive: 0.843
6,O=C(OC[C@H]1O[C@@H](OC(=O)c2cc(O)c(O)c(OC(=O)c3cc(O)c(O)c(O)c3)c2)[C@H](OC(=O)c2cc(O)c(O)c(OC(=O)c3cc(O)c(O)c(O)c3)c2)[C@@H](OC(=O)c2cc(O)c(O)c(OC(=O)c3cc(O)c(O)c(O)c3)c2)[C@@H]1OC(=O)c1cc(O)c(O)c(OC(=O)c2cc(O)c(O)c(O)c2)c1)c1cc(O)c(O)c(OC(=O)c2cc(O)c(O)c(O)c2)c1,inactive: 0.746
7,Cc1c(NC(=O)c2cccnc2)c(=O)n(-c2ccccc2)n1C,inactive: 1.1
8,C[C@@](Cc1ccc(O)c(O)c1)(NN)C(=O)O,inactive: 1.28
9,O=C(O)CCCC[C@@H](S)CCS (racemic),inactive: 1.05
10,Cc1cnc(C(=O)NCCc2ccc(S(=O)(=O)NC(=O)NC3CCCCC3)cc2)cn1,inactive: 1.07
11,O=C(/C=C/c1ccc(O)c(O)c1)OCCc1ccccc1,active: 7.21
12,CC(C)(C)NC(=O)[C@H]1CC[C@H]2[C@@H]3CC[C@H]4NC(=O)C=C[C@]4(C)[C@H]3CC[C@]12C,inactive: 1.08
13,OC[C@H]1O[C@@H](O[C@@H]2[C@@H](CO)OC(O)(CO)[C@H]2O)[C@H](O)[C@@H](O)[C@H]1O (mixture of isomers),inactive: 0.893
14,O=C(O)Cc1cc(I)c(Oc2cc(I)c(O)c(I)c2)c(I)c1,inactive: 1.06
15,CC(O)(CC(=O)O)CC(=O)O,inactive: 1.01
16,C=C1CC[C@H](O)C/C1=C/C=C1\CCC[C@]2(C)[C@@H]([C@H](C)CCCC(C)C)CC[C@@H]12,inactive: 1.5
17,O=c1c(O)c(-c2ccccc2)oc2cc(O)cc(O)c12,inactive: 1.41
18,C[n+]1c2cc(N)ccc2cc2ccc(N)cc21,inactive: 0.705
19,COc1cc(C)c(C(=O)O)c(O)c1,inactive: 1.25
20,COC(=O)C[C@H]1C(C)(C)[C@@H](OC(C)=O)[C@@H]2CC3C4CC(=O)O[C@@H](c5ccoc5)[C@]4(C)CCC3[C@@]1(C)C2=O (some centres undefined),inactive: 0.828

row,Compound,GRHL luciferase reporter activity
1,Nc1ccc(O)c(N)c1,inactive: 0.756
2,FC(F)(F)COCC(F)(F)F,inactive: 0.865
3,Cc1cc(C2CCCCC2)n(O)c(=O)c1,inactive: 0.257
4,COC(=O)Nc1nc2cc(C(=O)c3cccs3)ccc2[nH]1,inactive: 1.11
5,O=C(O)c1ccccc1C(=O)Nc1ccc(S(=O)(=O)Nc2nccs2)cc1,inactive: 1.13
6,COc1cc2nc(N3CCN(C(=O)c4ccco4)CC3)nc(N)c2cc1OC,inactive: 0.675
7,Cc1cc(=O)oc2cc(O)c(O)cc12,inactive: 1.45
8,CC(=O)Oc1ccc(C(c2ccc(OC(C)=O)cc2)c2ccccn2)cc1,inactive: 1.25
9,COc1c2occc2cc2ccc(=O)oc12,inactive: 1.3
10,CO[C@@H]1[C@@H](O[C@@H]2O[C@H](C)C(O[C@H]3C[C@@](C)(O)[C@@H](OC(=O)CC(C)C)[C@H](C)O3)[C@H](N(C)C)[C@H]2O)[C@@H](CC=O)C[C@@H](C)[C@@H](O)C=CC=CC[C@@H](C)OC(=O)C[C@H]1O (some centres undefined) [KITASAMYCINS [A1 shown]],inactive: 0.963
11,CC(C)Nc1ncccn1,inactive: 1.09
12,CC(=O)c1ccc(S(=O)(=O)NC(=O)NC2CCCCC2)cc1,inactive: 0.983
13,COc1c(-c2ccccc2)oc2cc(O)cc(O)c2c1=O,inactive: 0.906
14,CC(C)c1nc(N(C)S(C)(=O)=O)nc(-c2ccc(F)cc2)c1/C=C/[C@@H](O)C[C@@H](O)CC(=O)O,inactive: 1.19
15,COc1ccc(-n2nc(C(N)=O)c3c2C(=O)N(c2ccc(N4CCCCC4=O)cc2)CC3)cc1,inactive: 1.23
16,C=C(CC)C(=O)c1ccc(OCC(=O)O)c(Cl)c1Cl,active: 15.2
17,O=C1OC(=O)[C@H]2[C@@H]1[C@@H]1CC[C@H]2O1,inactive: 0.9
18,CO[C@H]1C[C@H](O[C@@H]2/C(C)=C\C[C@@H]3C[C@@H](C[C@]4(C=C[C@H](C)[C@@H](C(C)C)O4)O3)OC(=O)[C@@H]3C=C(C)[C@@H](O)[C@H]4OC/C(=C/C=C\[C@@H]2C)[C@]43O)O[C@@H](C)[C@H]1O[C@H]1C[C@@H](OC)[C@H](NC(C)=O)[C@H](C)O1,inactive: 1.15
19,C[C@H](CCC(=O)O)[C@H]1CC[C@H]2[C@@H]3CC[C@@H]4C[C@H](O)CC[C@]4(C)[C@H]3C[C@H](O)[C@]12C,inactive: 0.853
